Measurements published in PubChem BioAssay (Tox21).
Inconclusive means that the source gave no clear call. Such entries were picked first, then a sample of the others. A call without a number means that no potency is given here. For part of these data: Where the call is inconclusive, the potency comes from a doubtful curve fit. Active and inactive are the calls of the source. Unless noted, calls follow the shape of the dose curve; as a rule, active = well fitted curve in the direction sought with a large enough effect in the repeat runs; inconclusive = weak or mixed curves; inactive = no such curve, though single readings can be large; an effect the other way counts as inactive or inconclusive.

Assays:
[1] = qHTS assay to identify small molecule antagonists of the constitutive androstane receptor (CAR) signaling pathway - cell viability counter screen (AID 1224837); details: HepG2-CYP2B6-hCAR viability, CellTiter-Fluor, 23 h, co-treated with 50 nM CITCO; series mostly up to 92.4 µM; also: nearly all actives have a fitted effect of over 45% in size; also: potency is read from the fitted curve at half-maximal effect
Procedure, shortened: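 Using CellTiter-Fluor, viability is scored in HepG2 cells stably carrying hCAR and a 2.2kb CYP2B6 reporter after 23 hr compound exposure across 15 concentrations, with CITCO present at 50 nM.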

[2] = qHTS assay to test for compound auto fluorescence at 460 nm (blue) in HEK293 cell free culture (AID 720681); details: cell-free medium, autofluorescence 405/460 nm (blue); series mostly up to 91.3 µM
Procedure, shortened: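 Test compounds were pinned into cell-free culture medium (DMEM with 10% FBS) and fluorescence was read directly at Ex/Em 405/460 nm. Signals were expressed as fluorescence equivalents of triamterene, with DMSO vehicle as control.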

[3] = qHTS assay to identify small molecule agonists or antagonists of the thyroid stimulating hormone receptor (TSHR) signaling pathway - wild type cell line counter screen (AID 1259384; calls by dose curve); details: HEK293 wild type, cAMP HTRF counter-screen; cAMP activity change: at 92.4 µM (top of the series), hits give high values unless noted
Procedure, shortened: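 Wild-type HEK293 cells were plated 18 h at 37 C/5% CO2, pin-dosed with compound plus Ro20-1724 medium, held 30 min at room temperature, then given cAMP-d2 and anti-cAMP-cryptate; fluorescence was read after 1 h. Fifteen concentrations, triplicate.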

[4] = qHTS assay to identify small molecule antagonists of the farnesoid-X-receptor (FXR) signaling pathway - cell viability counter screen (AID 743221; active = well fitted cell-killing curve with a large enough effect in the repeat runs, not every such curve was filed as active; inconclusive = weak or mixed curves, or effect the other way; inactive = no such curve, though single readings can be large or run the other way; also: nearly all actives have a fitted effect of over 50% in size); details: FXR-bla HEK293T viability, CellTiter-Glo luminescence, 16 h; activity change, negative = cytotoxicity: at 62.6 µM (top of the series) unless noted
Procedure, shortened: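 Quantitative HTS of the Tox21 10K library run in parallel with the beta-lactamase reporter read. HEK 293T cells carrying a UAS-driven bla reporter got compound and 50 uM CDCA (final) for 16 h; ATP-based luminescence followed.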

[5] = qHTS assay to identify small molecule agonists of the estrogen related receptor signaling pathway with the pleiotropic PPARgamma coactivator (PGC) from Tox21 10K library (AID 1224842); details: PGC/ERR reporter cell line, luciferase ONE-Glo, 18 h; series mostly up to 92.4 µM; also: nearly all actives have a fitted effect of over 15% in size; also: potency is read from the fitted curve at half-maximal effect
Procedure, shortened: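 PGC/ERR reporter cells (NTP line) were seeded 2,000 per well, rested 6 h at 37 C/5% CO2, then pin-dosed with compounds in DMSO for 18 h at 37 C; luciferase read by One-Glo luminescence after 30 min at room temperature.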

[6] = qHTS RealTime-Glo MT Cell Viability Assay in HepG2 cells - 16 hour (AID 1224885); details: RealTime-Glo luminescence; series mostly up to 76.8 µM; also: nearly all actives have a fitted effect of over 50% in size
Procedure, shortened: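 qHTS, HepG2, 600 cells/well, RealTime-Glo (NanoLuc + prosubstrate) added with cells; 5 h preincubation; DMSO compound addition; 37 C; luminescence at 0/8/16/24/32/40 h.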

[7] = A CellTox Green Cytotoxicity Assay to monitor cytotoxicity in HepG2 cells - 0 hour (AID 1224882); details: CellTox Green fluorescence; series mostly up to 76.8 µM; also: potency is read from the fitted curve at half-maximal effect; nearly all actives have a fitted effect of over 35% in size
Procedure, shortened: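 Nonlytic assay: viable cells exclude the dye, so fluorescence scales with cell death. HepG2 at 600 cells/well, compounds added after 5 h, signal read across 40 h.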
Tags tell the direction and shape of the fitted curve.

In the case of CCC/C=C(\C=O)CC, the Potency [1] was “inactive”.
With O=C(OCc1ccccc1)C(=O)OCc1ccccc1 the Potency [2] was “inactive”.
For CNCCO, the Potency [3] was “inactive”.
With CC(C)(C)c1ccc(C=O)cc1 the Potency [4] was “inactive”.
In the case of Cc1ccc2c(c1)c1c3n2CCNC3CCC1 (configuration not stated), the Potency [1] was inconclusive: 2.98 µM [cytotoxic, full curve].
With CC/C=C\CC/C=C/CO the Potency [2] was “inactive”.
With Cc1ccc(O)c(C(=O)c2ccccc2)c1 the Potency [5] was inconclusive: 27.6 µM [activator, single point].
For CCCCCCCCCOS(=O)(=O)O, the Potency [6] was “inactive”.
In the case of Nc1ccc(C(=O)N2CC3CC(CN(Cc4ccccc4)C3)C2)cc1, the Potency [5] was “inactive”.
In the case of O=C1NC(=O)C(c2ccccc2)(c2ccccc2)N1, the Potency [7] was inconclusive: 26.8 µM [activator, partial curve, poor fit].
With NC(=O)Cc1cccc(C(=O)c2ccccc2)c1N the activity change, negative = cytotoxicity [4] was inconclusive: 32.1%.
With CCCCCCCCCCCCCCCC(=O)NCCO the Potency [7] was inconclusive: 23.9 µM [activator, single point].
